Test results: PubChem BioAssay AID686970 (National Center for Advancing Translational Sciences (NCATS), 2013)
Hit rate of the full screen: of about 360,000 compounds, about 6,000 (1.7%) were called active. The shares of active, inactive and inconclusive entries below differ from those in the screen. Calls follow the shape of the dose curve; as a rule, active = well fitted cell-killing curve with a large enough effect; inconclusive = small, poorly fitted or top-dose-only effect, or effect the other way; inactive = flat fitted curve, though single readings scatter. No potency is given beside an inconclusive call; the fits are too rough.

Experiment: qHTS for induction of synthetic lethality in tumor cells producing 2HG: qHTS for the HT-1080-NT fibrosarcoma cell line;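 also: NT is the 2HG producing partner of a matched IDH1 knockdown line; nearly all actives have a fitted effect of over 55% in size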
Conditions: HT-1080-NT fibrosarcoma viability, CellTiter-Glo ATP luminescence, 48 h; series mostly up to 46.1 µM
Outline: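 A 48-hour cytotoxicity screen used HT-1080-NT cells plated 2 hours before compound delivery. ATP-based CellTiter-Glo luminescence measured viability, normalized to DMSO and no-cell controls.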
Potency is read from the fitted curve at half-maximal effect; tags tell the direction and shape of the fitted curve.

For CCOC(=O)N1CCN(Cc2nc(N)nc(Nc3ccc(Oc4ccccc4)cc3)n2)CC1, which Potency is on record?
Its Potency is active: 16.4 µM.

With Cc1ccc(C(=O)N/N=C\c2cc(Br)c(Br)o2)cn1 as the compound, how does the Potency read?
The Potency was inconclusive [cytotoxic, single point].

Which Potency does the source give for CSc1ccc(C2C(C#N)=C(N)Oc3c2ccc(=O)c2c(C)oc(C)c32)cc1 (centres undefined) here?
The Potency was inconclusive [cytotoxic, single point].

For COc1ccc(/C=N/NC(=O)c2cc3c(OC)ccc(OC)c3[nH]2)cc1O, which Potency is on record?
The Potency was active: 2.31 µM.

Which Potency does the source give for COc1ccc(NC(=O)C2Cc3c(-c4cccc(C(N)=O)c4)ccnc3O2)cn1 (centres undefined) here?
Its Potency is inconclusive [cytotoxic, single point].

For Cc1ccc(NC(=O)C2CC(=O)N(CCc3ccccc3)C2)c(C)c1 (centres undefined), which Potency is on record?
Its Potency is “inactive”.

With c1cncc(-c2nc(N3CCCCCC3)c3ccccc3n2)c1 as the compound, how does the Potency read?
Its Potency is “inactive”.

Which Potency does the source give for CCC(c1nnnn1-c1ccc2c(c1)OCCO2)N1CCN(c2ccc(C(F)(F)F)cc2[N+](=O)[O-])CC1 (centres undefined) here?
Its Potency is “inactive”.

For COc1ccc(OC)c(NC(=O)CC2SC(=Nc3ccccc3)N(CCc3ccccn3)C2=O)c1 (centres undefined), which Potency is on record?
The Potency was “inactive”.

With Cc1ccc(O)c(C(=O)c2cc(C#N)c(=O)n(-c3nccs3)c2)c1 as the compound, how does the Potency read?
The Potency was inconclusive [cytotoxic, single point].

With COC(=O)c1scc(C#N)c1N/N=C(\C#N)S(=O)(=O)c1ccc(Cl)cc1 as the compound, how does the Potency read?
Its Potency is inconclusive [cytotoxic, partial curve].

For COc1cccc(N2CCN(S(=O)(=O)c3ccc4c(c3)N(C(C)=O)CCO4)CC2)c1, which Potency is on record?
The Potency was inconclusive [cytotoxic, single point].

With COc1cccc(C(=O)N(Cc2ccccc2)Cc2cc3cc4c(cc3[nH]c2=O)OCCO4)c1 as the compound, how does the Potency read?
Its Potency is inconclusive [cytotoxic, single point].

Which Potency does the source give for COc1cccc(-c2cnc(C(O)c3ccc(-c4ccccc4)cc3)[nH]2)c1 (centres undefined) here?
The Potency was inconclusive [cytotoxic, single point].

Which Potency does the source give for O=C(N/N=C/c1cccs1)c1cccc2cc[nH]c12 here?
The Potency was inconclusive [cytotoxic, single point].

With Cc1ccc(C)c2[nH]c(=O)c(CN(CCN3CCCC3)C(=O)Nc3cccc(Cl)c3)cc12 as the compound, how does the Potency read?
The Potency was inconclusive [cytotoxic, single point].

With Cc1cc(C(=O)CCl)c(C)n1CCc1ccccc1 as the compound, how does the Potency read?
Its Potency is active: 13 µM.

For Cn1cccc1C(=O)NC(=O)COC(=O)c1ccc(S(C)(=O)=O)c([N+](=O)[O-])c1, which Potency is on record?
The Potency was inconclusive [cytotoxic, single point].

Which Potency does the source give for Cc1cc(SCC(=O)Nc2ncc(Cl)cc2Cl)nc2ccccc12 here?
Its Potency is inconclusive [cytotoxic, partial curve].
